Data reported in the supplement of paper PMC11417369.
± gives the standard deviation of the averaged measurements. Some of the results follow.

Each sequence was assayed on PfAP2-G AP2 domain (GST-tagged) (assay: gcPBM binding intensity (ln(normalized median fluorescence intensity)); higher = stronger DNA binding).
Method in brief: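 In this array assay, P. falciparum DNA-binding domains with a GST tag, expressed in E. coli, were applied for 1 h to primer-extended double-stranded 36-bp intergenic genomic probes and negative controls on an Agilent 4 × 180k array. Bound protein was visualised with Alexa488 anti-GST antibody at 488 nm. Binding intensity is the highest Masliner-normalised natural-log median intensity across replicate spots of either probe orientation.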

| Sequence | gcPBM binding intensity (ln) |
| --- | --- |
| AAGATCATATATTCGTGGGTATAAAAAGTTATAATA [TGCATGCA_negctrl_site439] | 10.1 ± 0.13 |
| GTAATATTATAATATACACACATAGAATATATATAT [CACACA_site413] | 9.92 ± 0.071 |
| AAAAAAAAAAAAAATACACACAAACACAAATTAAAT [CACACA_site5982] | 10.1 ± 0.22 |
| AATAAAGGAAATAAATAATTTATTTTGTAAAATATG [CACACA_negctrl_site97] | 9.98 ± 0.12 |
| ATATATATGAATACATGTACGTATTTGTCTATGTAT [XGTACX_site8306] | 11.5 ± 0.66 |
| CAATGTTAACATATTACACACATATGTATTTATAAT [CACACA_site5512] | 10.06 ± 0.014 |
| GCATATATTATATATTTATTTATTTTTTTTTTTTAA [GTGCAC_negctrl_site193] | 9.45 ± 0.16 |
| TAAATTACATGAAATTGTACATGAATATTAAATATA [XGTACX_site3909] | 10.7 ± 0.45 |
| ATATATACAAAGGATTAACACACATATTATTATATA [CACACA_site8563] | 9.81 ± 0.014 |
| TTCGTTATAATTGAATTTACAATATGCTTTATAATG [XGTACX_negctrl_site238] | 9.76 ± 0.11 |
| AAAATATTTATATTTACACACACATAATACATATAT [CACACA_site32] | 10.15 ± 0.099 |
| GTGTACAGTTTTTGCACACATATAAATAAAAAAAAG [CACACA_site3599] | 11.2 ± 0.66 |
| TATAAATACATACGTACACACAAATATTAAAATATA [CACACA_site5129] | 11.5 ± 0.87 |
| AAATAAAATTATAATACATGCATACATACATATATA [TGCATGCA_site69] | 9.82 ± 0.028 |
| TGTGTTAATATATGAAGTACACAATACACACTAATT [XGTACX_site5469] | 11.4 ± 0.73 |
| ATGTTACTCAGACACACACACATAAAAAAACAAAAA [CACACA_site3249] | 10.4 ± 0.53 |
| CGAACTGCACTTTTTAGTACTTAATAATTATTTTTT [XGTACX_site2446] | 11 ± 0.51 |
| TAATATCATTTATGGGGTACCTCCTATTCTTATTTA [XGTACX_site1839] | 11.1 ± 0.46 |
| AAAAAAAACATCCTCACACATATATATATATATATA [CACACA_site5166] | 9.92 ± 0.28 |
| TCATATGTTAAATGATGTACATTTAATATAAATAAA [XGTACX_site900] | 11 ± 0.69 |
| TATATATATTTATGCACACAAAATATATTATATAAT [CACACA_site5955] | 10.1 ± 0.27 |
| AGGAAAAAAGAAAAAACACACATAAATATTTATATA [CACACA_site7446] | 9.7 ± 0.099 |

| Sequence | gcPBM binding intensity (ln) |
| --- | --- |
| TAATAATTACAAAGAAGTACATAAAAAAAAATTTAT [XGTACX_site4684] | 11.5 ± 1 |
| CTATATATATATTTCAGTACATATTAAGAATATATA [XGTACX_site4860] | 11 ± 0.73 |
| TTCTAATAAATGTGTTGTACACCTTTAGCAACTATT [XGTACX_site3235] | 11.3 ± 0.83 |
| TATATAAATATATACACACATACATACATACATATA [CACACA_site3835] | 10 ± 0.12 |
| ATATATATAAATACAACACACATGTAATATATAAAT [CACACA_site5766] | 9.965 ± 0.035 |
| ACGTAAAATAGGGACGCATGCACAAATATTTTTAAA [TGCATGCA_site336] | 10.6 ± 0.42 |
| TATACATCATTTTTCAACAACAAAAAAAAAAAAAAT [CACACA_negctrl_site1185] | 9.92 ± 0.44 |
| AAAAATATAATATATGCACACATACATACATATATA [CACACA_site7915] | 9.865 ± 0.049 |
| ATAATTAGTTCAATTTTTTTTTTTTTTTTTTTTTTT [CACACA_negctrl_site1371] | 10.9 ± 0.54 |
| ATTAATTATATATATACACACACATACACCCAAATA [CACACA_site9126] | 10.5 ± 0.36 |
| TAAATACTTCGTAAAACACACAAGTAGAAAAAAAAA [CACACA_site360] | 10.1 ± 0.16 |
| TTATTTATTTATTGTTGTACACAAAATGATTCTTAA [XGTACX_site6480] | 11.6 ± 1.1 |
| AAACAAAACAAAACATGTACACATTATATATATATA [XGTACX_site3374] | 11.6 ± 1.2 |
| ATTGTGTTGACGGGTGACCCTTCCAGAGAAATAGAA [CACACA_negctrl_site1362] | 10.4 ± 0.4 |
| TTTTTTTTAATGAGAAGTACGGTCTTTCAATGTCTT [XGTACX_site6773] | 10.9 ± 0.73 |
| TTTACATTTATGTGCACACATTCCATTTGAAAGTAA [CACACA_site1953] | 10.5 ± 0.34 |
| AATATTTTTTTTTAAACATGCATATTTGCATTACCC [TGCATGCA_site437] | 9.91 ± 0.11 |
| ATAACTTTCTATACATGTACACATATATGGTATTTT [XGTACX_site7535] | 11.3 ± 0.69 |
| ATAAATTTTTTATGAACACACAAATACACCCACTCA [CACACA_site5465] | 10.9 ± 0.48 |
| TGTATATATTTTAATAGTACTCATATATATATATAT [XGTACX_site7216] | 11.3 ± 0.59 |
| CTTATAAAAAAAATTGCACACATATTATACAGGACG [CACACA_site8133] | 10.3 ± 0.18 |
| TCCCCTTAATTTAAAACACACAAACAAATAAGTTAG [CACACA_site5973] | 9.965 ± 0.064 |

| Sequence | gcPBM binding intensity (ln) |
| --- | --- |
| TAAAAATTAAAACTGGGTACAAATTTATAGATAGCC [XGTACX_site8075] | 11.1 ± 0.69 |
| CATTAACAAATAAATGCACACATATATATAAATAAT [CACACA_site7892] | 9.935 ± 0.035 |
| AATTTATTAGATAGATGTACATTTTAATAAAAGTAG [XGTACX_site6819] | 11.1 ± 0.67 |
| TAAAGATGAAATATCACACATATATAAATATATAAA [CACACA_site4580] | 9.66 ± 0.028 |
| ATATGTTTTTTTTTTTTTTTTTAATTTGTCATAAAT [CACACA_negctrl_site1208] | 9.79 ± 0.2 |
| TCTTTCAATATTAATGCATGTTAATAATAAATTTTA [TGCATGCA_site448] | 9.675 ± 0.035 |
| TGAACAATATATAATAGTACATATTTATTTTTTTCT [XGTACX_site4256] | 10.8 ± 0.58 |
| ACTTTTACACTTTGATTGCACTACTAAACCAGTTCA | 10.4 ± 0.2 |
| AGAATTATTCTAAAAACACACAATACAAAAGTGCAT [CACACA_site3004] | 10.1 ± 0.34 |
| AAAAAACACGCGCACACACACACACGCGCCCACATA [CACACA_site7106] | 11.2 ± 0.74 |
| ATAAAAAAAAATATTTGTACACATATTTATATATTA [XGTACX_site8147] | 11.4 ± 0.7 |
| AATACTAAAACCCATACACACACATATATATAGTAC [CACACA_site9041] | 10.7 ± 0.23 |
| ATATAAATAAATATATGTACACACACAAATATATAC [XGTACX_site3950] | 11.4 ± 0.73 |
| TCTTTCTTATTTTAATGATATTTATTCATTCCAGTT [CACACA_negctrl_site1679] | 9.795 ± 0.021 |
| TTAATTTATTTATGCACACATATATAATTACCCATA [CACACA_site682] | 10.1 ± 0.33 |
| CGTATATATAAATACACACACATATATATCTGTAAA [CACACA_site4272] | 9.94 ± 0.2 |
| AATTAAATTACTTATACACACATAAAATGGGTGTAT [CACACA_site4703] | 9.815 ± 0.092 |
| AAAAAAAAAAAAAAGCGTACAAATAAAATATATTTA [XGTACX_site7195] | 11.6 ± 1 |
| TATATATAAAAATATACACACACAAATGTATATATA [CACACA_site7956] | 9.855 ± 0.035 |
| ATGTAATGAAACATTGCACACATATAATAATATAAT [CACACA_site8402] | 9.965 ± 0.021 |
| CCTTTTTTGTTTTATGCACACCATATAACCAAGGCT [CACACA_site7893] | 10.3 ± 0.21 |
| TAAATGTCCTTATTTGCACACACACCCATAAGAAAT [CACACA_site3185] | 11 ± 0.76 |

| Sequence | gcPBM binding intensity (ln) |
| --- | --- |
| TTTTTATATGCGTATTGTACATTATACATATATATA [XGTACX_site6786] | 11 ± 0.49 |
| AACATCAATTTATTTTCTTACATTATACGATTCATG [CACACA_negctrl_site1300] | 9.955 ± 0.092 |
| AAAAAAAAATCAAAATGTACTTATTTTTATAATAAT [XGTACX_site4712] | 11.2 ± 0.81 |
| TAATTATGCCAACACACACACACACCCAACTAAAAA [CACACA_site8823] | 10.4 ± 0.44 |
| ATGATGTGCAAGAGTAGTACACAATTTTGGGTTTAT [XGTACX_site501] | 11.6 ± 1 |
| AAACATAAGAAACACACACACATATATATATATATA [CACACA_site3642] | 10 ± 0.25 |
| ATTCTTATAACAAGAAGTACAAATATATGTATATAT [XGTACX_site4528] | 11.3 ± 0.71 |
| TTTTTTTTTAAGATGAAGATCAATATATAAATATAT [CACACA_negctrl_site1538] | 9.555 ± 0.035 |
| AAAAAAAAAAAACATACACACATACATACCTATATA [CACACA_site6575] | 9.83 ± 0.071 |
| AGAATATCAAAATAAAGTACATTTATTATATATATG [XGTACX_site7100] | 11.2 ± 0.87 |
| TTTTCTCTCAAAAAATGTACATAATATATATATTTT [XGTACX_site4861] | 11 ± 0.58 |
| ATACACACTTAAAAAAGTACTTAACTACATGAATTG [XGTACX_site1203] | 11.1 ± 0.59 |
| ATATTATATATAAAATGTACATTTAAAAATATTATA [XGTACX_site889] | 10.9 ± 0.57 |
| TTTTTTATTTTAAAAACATGCATAAAATATAATAGT [TGCATGCA_site762] | 10.1 ± 0.32 |
| AGATAAAAAAAGTACACACACACATATATTTATATA [CACACA_site7437] | 11.8 ± 1.2 |
| TATATATTTAATTTCACACATATATATAATTATTAT [CACACA_site4936] | 9.885 ± 0.007 |
| TTTTGTTGGATACAAAAATTACAAATTATTTAAAAA [TGCATGCA_negctrl_site532] | 10 ± 0.28 |
| TTTTTTTTTTTTTAAACATGCATAATAAATATAATA [TGCATGCA_site265] | 9.81 ± 0.35 |
| TTTTTTATTTTGTGCACACACATAAAAATATATATA [CACACA_site761] | 10.7 ± 0.53 |
| TTGTTTTCTTATTATTACTACAATACTTAAGTCAGA [TGCATGCA_negctrl_site184] | 10.1 ± 0.26 |
| TATTTATTTATGGACACACATACAAATCTTCCAGAC [CACACA_site942] | 11 ± 0.62 |
| TAATCATAACTTGATACGCACACGTTATATAAATAA [CACACA_site1579] | 10.4 ± 0.4 |
